# Test results: the supplement of paper PMC8728848
# The list shows a part of the results.
# B1: TLEC1 (Arabidopsis thaliana), Q9C5Q9 (protein)
# chain: MSGASSVSSICSSNVSLIPTGPQVFINFRGKDLRKGFMSFLKPALKKEKINVFIDEQEERGKYLISLFDTIGESKIALVIFSEGYCESHWCMDELVKIKEYMDQNRLIIIPIFYRLDLDVVKDLTGKFGDNFWDLVDKYQPEPKKLHKWTEALFSVCELFSLILPKHSDISDRDFVKSIVKAVKKVQKNFFQRRNGEIEYQDFSVPACKLTITMHESPNEEAVQVTVLNEFYQMKNQSPVPSYEFKFWVDLTRPKGNVFMIDARDLSIAWSEDSNHWTWLPLPNQNSNESVMEIAFLKSASWLDVAGKFDTRYLTPRTRYEVVFVVKLEYTFEWETLVKLKLDLPNTWEKPQEQSVDMFDYISDQWLDIPVGEFTTSKKNVGEISFAMYEHECQLWKSGLFVKGVTIRPKY
# Columns and labels:
# Assay in all cases: glycan array binding signal (z-score within array); higher = stronger binding
# Conditions in all cases: glycan notation: IUPAC condensed, linker removed
# [1] = molecular target: Man(a1-3)[Man(a1-6)]Man(a1-6)[Man(a1-3)]Man(b1-4)GlcNAc(b1-4)GlcNAc
# Method in brief: (§1)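 Columns mapping to the same glycan were averaged after glycan names were converted to IUPAC-condensed notation. The data come from 3228 arrays in the Consortium for Functional Glycomics database, limited to those with an available protein sequence. Binding is reported as a within-array Z-score averaged across arrays of one protein sequence and across linkers.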
# [2] = molecular target: Man(a1-3)[Man(a1-6)]Man(b1-4)GlcNAc(b1-4)GlcNAc
# Method in brief: as §1
# Man(b1-4)GlcNAc = molecular target: Man(b1-4)GlcNAc
# Method in brief: as §1
# Neu5Ac(a2-3)Gal = molecular target: Neu5Ac(a2-3)Gal
# Method in brief: as §1
# [3] = molecular target: Neu5Ac(a2-3)Gal(b1-3)GalNAc
# Method in brief: as §1
# [4] = molecular target: Neu5Ac(a2-3)Gal(b1-3)GalNAc(b1-3)Gal(a1-4)Gal(b1-4)Glc
# Method in brief: as §1
# [5] = molecular target: Neu5Ac(a2-3)Gal(b1-3)GalNAc(b1-4)[Neu5Ac(a2-3)]Gal(b1-4)Glc
# Method in brief: as §1
# [6] = molecular target: Neu5Ac(a2-3)Gal(b1-3)GalNAc6S
# Method in brief: as §1
# [7] = molecular target: Neu5Ac(a2-3)Gal(b1-3)GlcNAc
# Method in brief: as §1
# [8] = molecular target: Neu5Ac(a2-3)Gal(b1-3)GlcNAc(b1-3)Gal(b1-3)GlcNAc
# Method in brief: as §1
# [9] = molecular target: Neu5Ac(a2-3)Gal(b1-3)GlcNAc(b1-3)Gal(b1-4)GlcNAc
# Method in brief: as §1
# [10] = molecular target: Neu5Ac(a2-3)Gal(b1-3)GlcNAc6S
# Method in brief: as §1
# [11] = molecular target: Neu5Ac(a2-3)Gal(b1-3)[Fuc(a1-4)]GlcNAc
# Method in brief: as §1
# [12] = molecular target: Neu5Ac(a2-3)Gal(b1-3)[Fuc(a1-4)]GlcNAc(b1-3)Gal(b1-4)[Fuc(a1-3)]GlcNAc
# Method in brief: as §1
# [13] = molecular target: Neu5Ac(a2-3)Gal(b1-3)[Neu5Ac(a2-3)Gal(b1-4)]GlcNAc
# Method in brief: as §1
# [14] = molecular target: Neu5Ac(a2-3)Gal(b1-3)[Neu5Ac(a2-6)]GalNAc
# Method in brief: as §1
# Neu5Ac(a2-3)Gal(b1-4)Glc = molecular target: Neu5Ac(a2-3)Gal(b1-4)Glc
# Method in brief: as §1
# [15] = molecular target: Neu5Ac(a2-3)Gal(b1-4)GlcNAc
# Method in brief: as §1
# [16] = molecular target: Neu5Ac(a2-3)Gal(b1-4)GlcNAc(b1-3)Gal(b1-3)GlcNAc
# Method in brief: as §1
# [17] = molecular target: Neu5Ac(a2-3)Gal(b1-4)GlcNAc(b1-3)Gal(b1-4)GlcNAc
# Method in brief: as §1
# [18] = molecular target: Neu5Ac(a2-3)Gal(b1-4)GlcNAc(b1-3)Gal(b1-4)GlcNAc(b1-3)Gal(b1-4)GlcNAc
# Method in brief: as §1
# [19] = molecular target: Neu5Ac(a2-3)Gal(b1-4)GlcNAc(b1-3)Gal(b1-4)[Fuc(a1-3)]GlcNAc
# Method in brief: as §1
# [20] = molecular target: Neu5Ac(a2-3)Gal(b1-4)GlcNAc(b1-6)[Gal(b1-3)]GalNAc
# Method in brief: as §1
# [21] = molecular target: Neu5Ac(a2-3)Gal(b1-4)GlcNAc6S
# Method in brief: as §1
# [22] = molecular target: Neu5Ac(a2-3)Gal(b1-4)[Fuc(a1-3)]GlcNAc
# Method in brief: as §1
# [23] = molecular target: Neu5Ac(a2-3)Gal(b1-4)[Fuc(a1-3)]GlcNAc(b1-3)Gal
# Method in brief: as §1
# [24] = molecular target: Neu5Ac(a2-3)Gal(b1-4)[Fuc(a1-3)]GlcNAc(b1-3)Gal(b1-4)GlcNAc
# Method in brief: as §1
# [25] = molecular target: Neu5Ac(a2-3)Gal(b1-4)[Fuc(a1-3)]GlcNAc(b1-3)Gal(b1-4)[Fuc(a1-3)]GlcNAc(b1-3)Gal(b1-4)[Fuc(a1-3)]GlcNAc
# Method in brief: as §1
# [26] = molecular target: Neu5Ac(a2-3)Gal(b1-4)[Fuc(a1-3)]GlcNAc6S
# Method in brief: as §1
# [27] = molecular target: Neu5Ac(a2-3)Gal6S(b1-4)GlcNAc
# Method in brief: as §1
# [28] = molecular target: Neu5Ac(a2-3)Gal6S(b1-4)[Fuc(a1-3)]GlcNAc
# Method in brief: as §1
# Neu5Ac(a2-3)GalNAc = molecular target: Neu5Ac(a2-3)GalNAc
# Method in brief: as §1
# [29] = molecular target: Neu5Ac(a2-3)GalNAc(b1-4)GlcNAc
# Method in brief: as §1
# [30] = molecular target: Neu5Ac(a2-3)[GalNAc(b1-4)]Gal(b1-4)Glc
# Method in brief: as §1
# [31] = molecular target: Neu5Ac(a2-3)[GalNAc(b1-4)]Gal(b1-4)GlcNAc
# Method in brief: as §1
# [32] = molecular target: Neu5Ac(a2-3)[Neu5Ac(a2-6)]GalNAc
# Method in brief: as §1
# [33] = molecular target: Neu5Ac(a2-6)Gal(b1-4)GlcNAc
# Method in brief: as §1
# [34] = molecular target: Neu5Ac(a2-6)Gal(b1-4)GlcNAc(b1-2)Man(a1-3)[Neu5Ac(a2-6)Gal(b1-4)GlcNAc(b1-2)Man(a1-6)]Man(b1-4)GlcNAc(b1-4)GlcNAc
# Method in brief: as §1
# [35] = molecular target: Neu5Ac(a2-6)Gal(b1-4)GlcNAc(b1-3)Gal(b1-4)GlcNAc
# Method in brief: as §1
# [36] = molecular target: Neu5Ac(a2-6)Gal(b1-4)GlcNAc(b1-3)Gal(b1-4)[Fuc(a1-3)]GlcNAc(b1-3)Gal(b1-4)[Fuc(a1-3)]GlcNAc
# Method in brief: as §1
# [37] = molecular target: Neu5Ac(a2-6)Gal(b1-4)GlcNAc6S
# Method in brief: as §1
# Neu5Ac(a2-6)GalNAc = molecular target: Neu5Ac(a2-6)GalNAc
# Method in brief: as §1
# [38] = molecular target: Neu5Ac(a2-6)GalNAc(b1-4)GlcNAc
# Method in brief: as §1
# Neu5Ac(a2-8)Neu5Ac = molecular target: Neu5Ac(a2-8)Neu5Ac
# Method in brief: as §1
# [39] = molecular target: Neu5Ac(a2-8)Neu5Ac(a2-3)Gal(b1-4)Glc
# Method in brief: as §1
# [40] = molecular target: Neu5Ac(a2-8)Neu5Ac(a2-3)[GalNAc(b1-4)]Gal(b1-4)Glc
# Method in brief: as §1
# [41] = molecular target: Neu5Ac(a2-8)Neu5Ac(a2-8)Neu5Ac
# Method in brief: as §1
# [42] = molecular target: Neu5Ac(a2-8)Neu5Ac(a2-8)Neu5Ac(a2-3)Gal(b1-4)Glc
# Method in brief: as §1
# [43] = molecular target: Neu5Ac(a2-8)Neu5Ac(a2-8)Neu5Ac(a2-3)[GalNAc(b1-4)]Gal(b1-4)Glc
# Method in brief: as §1
# [44] = molecular target: Neu5Ac(a2-8)Neu5Ac(a2-8)Neu5Ac(a2-8)Neu5Ac(a2-3)[GalNAc(b1-4)]Gal(b1-4)Glc
# Method in brief: as §1
# [45] = molecular target: Neu5Ac9Ac(a2-6)Gal(b1-4)GlcNAc
# Method in brief: as §1
# [46] = molecular target: Neu5Gc(a2-3)Gal(b1-3)GlcNAc
# Method in brief: as §1
# [47] = molecular target: Neu5Gc(a2-3)Gal(b1-3)[Fuc(a1-4)]GlcNAc
# Method in brief: as §1
# Neu5Gc(a2-3)Gal(b1-4)Glc = molecular target: Neu5Gc(a2-3)Gal(b1-4)Glc
# Method in brief: as §1
# [48] = molecular target: Neu5Gc(a2-3)Gal(b1-4)GlcNAc
# Method in brief: as §1
# [49] = molecular target: Neu5Gc(a2-3)Gal(b1-4)[Fuc(a1-4)]GlcNAc
# Method in brief: as §1
# [50] = molecular target: Neu5Gc(a2-6)Gal(b1-4)GlcNAc
# Method in brief: as §1
# Neu5Gc(a2-6)GalNAc = molecular target: Neu5Gc(a2-6)GalNAc
# Method in brief: as §1
binder,measurement,setting,value
B1,glycan array binding signal (z-score),[1],-0.391
same,glycan array binding signal (z-score),[2],-0.449
same,glycan array binding signal (z-score),Man(b1-4)GlcNAc,-0.208
same,glycan array binding signal (z-score),Neu5Ac(a2-3)Gal,-0.392
same,glycan array binding signal (z-score),[3],-0.332
same,glycan array binding signal (z-score),[4],-0.556
same,glycan array binding signal (z-score),[5],-0.512
same,glycan array binding signal (z-score),[6],-0.233
same,glycan array binding signal (z-score),[7],-0.468
same,glycan array binding signal (z-score),[8],-0.526
same,glycan array binding signal (z-score),[9],-0.488
same,glycan array binding signal (z-score),[10],-0.383
same,glycan array binding signal (z-score),[11],-0.525
same,glycan array binding signal (z-score),[12],-0.08
same,glycan array binding signal (z-score),[13],-0.547
same,glycan array binding signal (z-score),[14],-0.553
same,glycan array binding signal (z-score),Neu5Ac(a2-3)Gal(b1-4)Glc,-0.3
same,glycan array binding signal (z-score),[15],-0.492
same,glycan array binding signal (z-score),[16],-0.473
same,glycan array binding signal (z-score),[17],-0.327
same,glycan array binding signal (z-score),[18],-0.588
same,glycan array binding signal (z-score),[19],-0.405
same,glycan array binding signal (z-score),[20],-0.341
same,glycan array binding signal (z-score),[21],-0.498
same,glycan array binding signal (z-score),[22],-0.372
same,glycan array binding signal (z-score),[23],-0.504
same,glycan array binding signal (z-score),[24],0.154
same,glycan array binding signal (z-score),[25],-0.302
same,glycan array binding signal (z-score),[26],-0.464
same,glycan array binding signal (z-score),[27],0.346
same,glycan array binding signal (z-score),[28],-0.194
same,glycan array binding signal (z-score),Neu5Ac(a2-3)GalNAc,-0.362
same,glycan array binding signal (z-score),[29],-0.437
same,glycan array binding signal (z-score),[30],-0.46
same,glycan array binding signal (z-score),[31],-0.487
same,glycan array binding signal (z-score),[32],-0.386
same,glycan array binding signal (z-score),[33],-0.295
same,glycan array binding signal (z-score),[34],-0.455
same,glycan array binding signal (z-score),[35],-0.244
same,glycan array binding signal (z-score),[36],-0.48
same,glycan array binding signal (z-score),[37],-0.322
same,glycan array binding signal (z-score),Neu5Ac(a2-6)GalNAc,-0.442
same,glycan array binding signal (z-score),[38],-0.493
same,glycan array binding signal (z-score),Neu5Ac(a2-8)Neu5Ac,-0.518
same,glycan array binding signal (z-score),[39],-0.438
same,glycan array binding signal (z-score),[40],-0.396
same,glycan array binding signal (z-score),[41],-0.485
same,glycan array binding signal (z-score),[42],-0.511
same,glycan array binding signal (z-score),[43],-0.444
same,glycan array binding signal (z-score),[44],-0.365
same,glycan array binding signal (z-score),[45],-0.272
same,glycan array binding signal (z-score),[46],-0.447
same,glycan array binding signal (z-score),[47],-0.473
same,glycan array binding signal (z-score),Neu5Gc(a2-3)Gal(b1-4)Glc,-0.391
same,glycan array binding signal (z-score),[48],-0.574
same,glycan array binding signal (z-score),[49],-0.219
same,glycan array binding signal (z-score),[50],-0.563
same,glycan array binding signal (z-score),Neu5Gc(a2-6)GalNAc,-0.514
